Paper PMC5892938
The other results are listed elsewhere or left out. At the low end of the ranking the order means little.
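Further: DESeq read counts versus GST-SBP nonspecific binding control pulldown.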

These sequences were tested against GST-SBP-SLBP (stem-loop binding protein) (UniProt Q14493) (assay: targeted RNA Bind-n-Seq). Details: RBNS binding buffer: 25 mM Tris pH 7.5, 150 mM KCl, 3 mM MgCl2, 0.1% Tween, 0.5 mg/mL BSA, 1 mM DTT; 27 nM protein, 750 pM RNA pool; temperature not stated; high values mean tight binding.
“GGUCACGUCUCAAUCAACUCACCCGAGGGGGGGAAAACCCCUUUACCCUCAUAUUCAACAGCUCGCAGUCAAG” was tested, and the binding signal (log2 fold change) was -0.25.
Sequence “GGUCACGUCUCAAUCAACUCUAUUUCCAGGGAAAACCCUGGUAUUUUCAACAGCUCGCAGUCAAG” has a binding signal (log2 fold change) of 0.125.
For “GGUCACGUCUCAAUCAACUCAUCUUCAGGAGUUUGCUCCUGUAUACUCAACAGCUCGCAGUCAAG”, the binding signal (log2 fold change) was 0.0134.
For “GGUCACGUCUCAAUCAACUCCUUCGAGGGGGGGAAAACCCCUUUACCCUCAACCUCAACAGCUCGCAGUCAAG”, the binding signal (log2 fold change) was -0.265.
Sequence “GGUCACGUCUCAAUCAACUCAGUCUCCAGGGAAAUCCCUGGUAAAUUCAACAGCUCGCAGUCAAG” has a binding signal (log2 fold change) of -0.138.
For “GGUCACGUCUCAAUCAACUCUAUCCCCAGGGAAAGCCCUGGCUUACUCAACAGCUCGCAGUCAAG”, the binding signal (log2 fold change) was 0.3.
Sequence “GGUCACGUCUCAAUCAACUCUUCGCCAGGAGUUUUCUCCUGUUUAUUCAACAGCUCGCAGUCAAG” has a binding signal (log2 fold change) of 0.18.
“GGUCACGUCUCAAUCAACUCAUCCUCCAGGGAAACCCCUGGCAAUCUCAACAGCUCGCAGUCAAG” gave a binding signal (log2 fold change) of 0.0869.
For “GGUCACGUCUCAAUCAACUCUUUAGAGGGGGGGAAAACCCCUUUGCCCUCAAUUUCAACAGCUCGCAGUCAAG”, the binding signal (log2 fold change) was 0.141.
Sequence “GGUCACGUCUCAAUCAACUCAGUUUCAGGAGUUUUCUCCUGCUUUCUCAACAGCUCGCAGUCAAG” has a binding signal (log2 fold change) of 0.0887.
For “GGUCACGUCUCAAUCAACUCAGUCUCAGGAGUUUACUCCUGUUUUCUCAACAGCUCGCAGUCAAG”, the binding signal (log2 fold change) was -0.0414.
For “GGUCACGUCUCAAUCAACUCUUCCCCAGGAGUUUACUCCUGCUAAUUCAACAGCUCGCAGUCAAG”, the binding signal (log2 fold change) was -0.0235.
“GGUCACGUCUCAAUCAACUCUACUCCCAGGGAAACCCCUGGUAUAUUCAACAGCUCGCAGUCAAG” gave a binding signal (log2 fold change) of -0.211.
“GGUCACGUCUCAAUCAACUCCAUAGAGGGGGGGAAAACCCCUUUACCCUCAUCUUCAACAGCUCGCAGUCAAG” gave a binding signal (log2 fold change) of 0.112.
In the case of “GGUCACGUCUCAAUCAACUCUACUCCCAGGGAAAGCCCUGGUAAUUUCAACAGCUCGCAGUCAAG”, the binding signal (log2 fold change) is reported as -0.0583.
For “GGUCACGUCUCAAUCAACUCCUUAGAGGGGGGGAAAACCCCUUUACCCUCAUUUUCAACAGCUCGCAGUCAAG”, the binding signal (log2 fold change) was -0.386.
With “GGUCACGUCUCAAUCAACUCAUUUUCCAGGGAAAGCCCUGGUUUAUUCAACAGCUCGCAGUCAAG” the binding signal (log2 fold change) was -0.15.
With “GGUCACGUCUCAAUCAACUCAAUUCCCAGGGAAACCCCUGGUAUACUCAACAGCUCGCAGUCAAG” the binding signal (log2 fold change) was 0.105.
In the case of “GGUCACGUCUCAAUCAACUCAUCGUCAGGAGUUUGCUCCUGCAAUUUCAACAGCUCGCAGUCAAG”, the binding signal (log2 fold change) is reported as 0.0216.
“GGUCACGUCUCAAUCAACUCAAGUCCAGGAGUUUCCUCCUGCAAAUUCAACAGCUCGCAGUCAAG” showed a binding signal (log2 fold change) of -0.11.
In the case of “GGUCACGUCUCAAUCAACUCUUCCCCAGGAGUUUACUCCUGUUAAUUCAACAGCUCGCAGUCAAG”, the binding signal (log2 fold change) is reported as -0.0229.
“GGUCACGUCUCAAUCAACUCUAUUCCCAGGGAAACCCCUGGCUUUCUCAACAGCUCGCAGUCAAG” gave a binding signal (log2 fold change) of 0.0254.
With “GGUCACGUCUCAAUCAACUCAUUCUCAGGAGUUUACUCCUGCAAAUUCAACAGCUCGCAGUCAAG” the binding signal (log2 fold change) was -0.201.
With “GGUCACGUCUCAAUCAACUCAUUUUCAGGAGUUUACUCCUGCAUUCUCAACAGCUCGCAGUCAAG” the binding signal (log2 fold change) was -0.0386.
“GGUCACGUCUCAAUCAACUCAAUCGCAGGAGUUUACUCCUGGUAAUUCAACAGCUCGCAGUCAAG” was tested, and the binding signal (log2 fold change) was 0.107.
“GGUCACGUCUCAAUCAACUCAGUCCCAGGAGUUUCCUCCUGUAUUUUCAACAGCUCGCAGUCAAG” showed a binding signal (log2 fold change) of -0.198.
Sequence “GGUCACGUCUCAAUCAACUCUUCUCCCAGGGAAAGCCCUGGUAAACUCAACAGCUCGCAGUCAAG” has a binding signal (log2 fold change) of 0.33.
For “GGUCACGUCUCAAUCAACUCUAGUCCAGGAGUUUACUCCUGUAAUUUCAACAGCUCGCAGUCAAG”, the binding signal (log2 fold change) was -0.0626.
With “GGUCACGUCUCAAUCAACUCUUAUGAGGGGGGGAAAACCCCUUUACCCUCUACAUCAACAGCUCGCAGUCAAG” the binding signal (log2 fold change) was 0.045.
Sequence “GGUCACGUCUCAAUCAACUCUUACGAGGGGGGGAAAACCCCUUUGCCCUCAUCAUCAACAGCUCGCAGUCAAG” has a binding signal (log2 fold change) of -0.148.
“GGUCACGUCUCAAUCAACUCCAAGGAGGGGGGGAAAACCCCUUUACCCUCAAUCUCAACAGCUCGCAGUCAAG” showed a binding signal (log2 fold change) of 0.482.
“GGUCACGUCUCAAUCAACUCACAAGAGGGGGGGAAAACCCCUUUGCCCUCAAUUUCAACAGCUCGCAGUCAAG” gave a binding signal (log2 fold change) of -0.328.
Sequence “GGUCACGUCUCAAUCAACUCUAUCCCCAGGGAAACCCCUGGCAUACUCAACAGCUCGCAGUCAAG” has a binding signal (log2 fold change) of -0.0221.
“GGUCACGUCUCAAUCAACUCACAAGAGGGGGGGAAAACCCCUUUGCCCUCAAAUUCAACAGCUCGCAGUCAAG” gave a binding signal (log2 fold change) of 0.121.
For “GGUCACGUCUCAAUCAACUCAAUCUCCAGGGAAAACCCUGGCAAUCUCAACAGCUCGCAGUCAAG”, the binding signal (log2 fold change) was -0.00152.
Sequence “GGUCACGUCUCAAUCAACUCUUCCCCAGGAGUUUACUCCUGUAAAUUCAACAGCUCGCAGUCAAG” has a binding signal (log2 fold change) of -0.0207.
Work on “GGUCACGUCUCAAUCAACUCCUCAGAGGGGGGGAAAACCCCUUUACCCUCCGUUUCAACAGCUCGCAGUCAAG” yielded a binding signal (log2 fold change) of -0.466.
